From paper PMC12820563, “FoxP3 forms a head-to-head dimer in vivo and stabilizes its multimerization on adjacent microsatellites”
The list shows a part of the results.

Target: T1, MBP-FoxP1dN (Mus musculus, UniProt P58462 326-579)
T1 sequence: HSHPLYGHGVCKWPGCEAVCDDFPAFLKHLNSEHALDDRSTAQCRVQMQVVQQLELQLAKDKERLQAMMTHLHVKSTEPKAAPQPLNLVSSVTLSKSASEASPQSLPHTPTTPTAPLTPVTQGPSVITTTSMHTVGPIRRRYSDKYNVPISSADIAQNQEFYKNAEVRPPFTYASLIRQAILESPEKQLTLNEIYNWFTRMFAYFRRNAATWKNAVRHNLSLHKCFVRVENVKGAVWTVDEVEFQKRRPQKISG
Assay: PD-seq (MBP pull-down with sequencing); 20 mM Tris-HCl pH 7.5, 100 mM NaCl, 1.5 mM MgCl2, 0.4 uM protein, 0.1 uM dsDNA library, 30 min, room temperature, amylose pull-down; high values mean tight binding
Conditions: protein: recombinant; tags: His6-MBP; chain copies: 2; dsDNA, one strand shown
How it was run: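 His6-MBP-tagged mouse FoxP3 or FoxP1 fragment lacking the N-terminus, expressed in E. coli, was mixed at 0.4 µM with 0.1 µM Klenow-filled double-stranded degenerate DNA library. Incubation was 30 min at room temperature in Tris pH 7.5 buffer with NaCl and MgCl2. Complexes were caught on amylose resin and washed three times; DNA was released with proteinase K, PCR-barcoded and Illumina-sequenced. Binding is reads-per-million enrichment, pull-down over input, with replicates pooled.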

Row | Sequence | binding signal
1 | GATGATTGTTCTCCCAGCTGATGAATTTTTGGGCTCGAGTAAACAAATTTTCCTAATCTTTCTGTTCAAGCGCCATCTAC | 0.78 RPM ratio (pull-down/input)
2 | GATGATTGTTCTCCCAGCTGATGAATTCAATTCTTCGAGTAAACAAATTTTCCTAATCTTTCTGTTCAAGCGCCATCTAC | 0.873 RPM ratio (pull-down/input)
3 | GATGATTGTTCTCCCAGCTGATGAATTTCGGAGATCGAGTAAACAAATTTTCCTAATCTTTCTGTTCAAGCGCCATCTAC | 0.836 RPM ratio (pull-down/input)
4 | GATGATTGTTCTCCCAGCTGATGAATTGTTGGCTTCGAGTAAACAAATTTTCCTAATCTTTCTGTTCAAGCGCCATCTAC | 1.3 RPM ratio (pull-down/input)
5 | GATGATTGTTCTCCCAGCTGATGAATTGCATGTCTCGAGTAAACAAATTTTCCTAATCTTTCTGTTCAAGCGCCATCTAC | 1.19 RPM ratio (pull-down/input)
6 | GATGATTGTTCTCCCAGCTGATGAATTAGCCCATTCGAGTAAACAAATTTTCCTAATCTTTCTGTTCAAGCGCCATCTAC | 0.917 RPM ratio (pull-down/input)
7 | GATGATTGTTCTCCCAGCTGATGAATTGGCGCCGTCGAGTAAACAAATTTTCCTAATCTTTCTGTTCAAGCGCCATCTAC | 0.823 RPM ratio (pull-down/input)
8 | GATGATTGTTCTCCCAGCTGATGAATTGCCATGATCGAGTAAACAAATTTTCCTAATCTTTCTGTTCAAGCGCCATCTAC | 0.997 RPM ratio (pull-down/input)
9 | GATGATTGTTCTCCCAGCTGATGAATTATTCGTGTCGAGTAAACAAATTTTCCTAATCTTTCTGTTCAAGCGCCATCTAC | 1.04 RPM ratio (pull-down/input)
10 | GATGATTGTTCTCCCAGCTGATGAATTAATTCCCTCGAGTAAACAAATTTTCCTAATCTTTCTGTTCAAGCGCCATCTAC | 0.912 RPM ratio (pull-down/input)
11 | GATGATTGTTCTCCCAGCTGATGAATTCGACACTTCGAGTAAACAAATTTTCCTAATCTTTCTGTTCAAGCGCCATCTAC | 0.882 RPM ratio (pull-down/input)
12 | GATGATTGTTCTCCCAGCTGATGAATTGCCGCTATCGAGTAAACAAATTTTCCTAATCTTTCTGTTCAAGCGCCATCTAC | 0.959 RPM ratio (pull-down/input)
13 | GATGATTGTTCTCCCAGCTGATGAATTGGCGAGGTCGAGTAAACAAATTTTCCTAATCTTTCTGTTCAAGCGCCATCTAC | 0.81 RPM ratio (pull-down/input)
14 | GATGATTGTTCTCCCAGCTGATGAATTACCCAAGTCGAGTAAACAAATTTTCCTAATCTTTCTGTTCAAGCGCCATCTAC | 0.823 RPM ratio (pull-down/input)
15 | GATGATTGTTCTCCCAGCTGATGAATTCGTCATCTCGAGTAAACAAATTTTCCTAATCTTTCTGTTCAAGCGCCATCTAC | 0.846 RPM ratio (pull-down/input)
16 | GATGATTGTTCTCCCAGCTGATGAATTCCCCTAATCGAGTAAACAAATTTTCCTAATCTTTCTGTTCAAGCGCCATCTAC | 1.01 RPM ratio (pull-down/input)

Row | Sequence | binding signal
17 | GATGATTGTTCTCCCAGCTGATGAATTTGGCCACTCGAGTAAACAAATTTTCCTAATCTTTCTGTTCAAGCGCCATCTAC | 0.901 RPM ratio (pull-down/input)
18 | GATGATTGTTCTCCCAGCTGATGAATTCGGTGCTTCGAGTAAACAAATTTTCCTAATCTTTCTGTTCAAGCGCCATCTAC | 0.903 RPM ratio (pull-down/input)
19 | GATGATTGTTCTCCCAGCTGATGAATTTCCATTTTCGAGTAAACAAATTTTCCTAATCTTTCTGTTCAAGCGCCATCTAC | 0.933 RPM ratio (pull-down/input)
20 | GATGATTGTTCTCCCAGCTGATGAATTCGGAAGATCGAGTAAACAAATTTTCCTAATCTTTCTGTTCAAGCGCCATCTAC | 0.815 RPM ratio (pull-down/input)
21 | GATGATTGTTCTCCCAGCTGATGAATTGAATAGCTCGAGTAAACAAATTTTCCTAATCTTTCTGTTCAAGCGCCATCTAC | 0.857 RPM ratio (pull-down/input)
22 | GATGATTGTTCTCCCAGCTGATGAATTAACAGTGTCGAGTAAACAAATTTTCCTAATCTTTCTGTTCAAGCGCCATCTAC | 1.04 RPM ratio (pull-down/input)
23 | GATGATTGTTCTCCCAGCTGATGAATTCAAGAATTCGAGTAAACAAATTTTCCTAATCTTTCTGTTCAAGCGCCATCTAC | 0.87 RPM ratio (pull-down/input)
24 | GATGATTGTTCTCCCAGCTGATGAATTATTGAGTTCGAGTAAACAAATTTTCCTAATCTTTCTGTTCAAGCGCCATCTAC | 1.05 RPM ratio (pull-down/input)
25 | GATGATTGTTCTCCCAGCTGATGAATTCACTCAGTCGAGTAAACAAATTTTCCTAATCTTTCTGTTCAAGCGCCATCTAC | 0.85 RPM ratio (pull-down/input)
26 | GATGATTGTTCTCCCAGCTGATGAATTATAAGGATCGAGTAAACAAATTTTCCTAATCTTTCTGTTCAAGCGCCATCTAC | 0.941 RPM ratio (pull-down/input)
27 | GATGATTGTTCTCCCAGCTGATGAATTACCGTCATCGAGTAAACAAATTTTCCTAATCTTTCTGTTCAAGCGCCATCTAC | 1.06 RPM ratio (pull-down/input)
28 | GATGATTGTTCTCCCAGCTGATGAATTCCTGTGTTCGAGTAAACAAATTTTCCTAATCTTTCTGTTCAAGCGCCATCTAC | 1.26 RPM ratio (pull-down/input)
29 | GATGATTGTTCTCCCAGCTGATGAATTTGTGTCATCGAGTAAACAAATTTTCCTAATCTTTCTGTTCAAGCGCCATCTAC | 1.48 RPM ratio (pull-down/input)
30 | GATGATTGTTCTCCCAGCTGATGAATTACCTCCCTCGAGTAAACAAATTTTCCTAATCTTTCTGTTCAAGCGCCATCTAC | 0.849 RPM ratio (pull-down/input)
31 | GATGATTGTTCTCCCAGCTGATGAATTCATTAGTTCGAGTAAACAAATTTTCCTAATCTTTCTGTTCAAGCGCCATCTAC | 0.867 RPM ratio (pull-down/input)
32 | GATGATTGTTCTCCCAGCTGATGAATTTTGTGTTTCGAGTAAACAAATTTTCCTAATCTTTCTGTTCAAGCGCCATCTAC | 1.58 RPM ratio (pull-down/input)
